From article PMC10726135 come the findings set out here.

The other results are listed elsewhere or left out. At the low end of the ranking, values are background and their order means little. Measured with an extract: partners may take part in the binding.

The test has as its target T1, HNF4alpha8 (COS-7 nuclear extract) (UniProt P41235-5).
T1 sequence: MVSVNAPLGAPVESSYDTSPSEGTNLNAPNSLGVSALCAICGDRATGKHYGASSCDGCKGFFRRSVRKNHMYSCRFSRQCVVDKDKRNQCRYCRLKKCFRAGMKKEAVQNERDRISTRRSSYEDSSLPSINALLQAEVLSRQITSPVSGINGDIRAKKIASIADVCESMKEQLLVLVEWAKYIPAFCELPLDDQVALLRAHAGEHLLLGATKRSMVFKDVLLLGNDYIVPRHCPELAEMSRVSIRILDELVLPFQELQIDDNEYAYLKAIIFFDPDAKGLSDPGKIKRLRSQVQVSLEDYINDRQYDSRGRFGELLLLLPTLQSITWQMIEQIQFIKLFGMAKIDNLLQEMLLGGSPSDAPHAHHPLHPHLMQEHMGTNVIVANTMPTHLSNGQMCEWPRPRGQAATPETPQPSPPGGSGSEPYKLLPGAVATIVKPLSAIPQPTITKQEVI
In words: protein-binding microarray. Conditions: COS-7 nuclear extract on double-stranded Agilent 4x180k PBM; binding buffer, salt, pH and temperature not given; high values mean tight binding; double strand, one strand shown; sequences stand for … in …GCCTAGGGAGATTAGAGTATCGGTCGA
TTCCATAGATAAGAGCTGAGGAAGTGCTGA: the binding signal (log2 normalized intensity) is -1.25.
On to CCACCAAGGACTGGACCACCTCCTCAAAGA, for which the binding signal (log2 normalized intensity) was -1.32.
As to AGCTGCTGGCAGGAATTTTAAAAGTATACT, the binding signal (log2 normalized intensity) was -1.12.
With AACTTTGCAGCAGATAATTACCTGGACTCT, the binding signal (log2 normalized intensity) turned out to be 3.94.
In the case of AAGAGTTAAAAAAAAAAAAAACTATCAAAC it was -1.27; in that of TTTGATCCTGATGACTGCAGAGCTTGCTCT, -1.23.
In the case of GTAGATTAAATCCTCGAAGAGTTTGAACTA it was 1.
In the case of CCGGACATGGAGAGGTGAGACACGTGTGCC it was -0.118.
On to TACACACATTCCAATCTTCTTTTCCAGTCT, for which the binding signal (log2 normalized intensity) was -0.344.
For TTATTAGTCCAAGAGATTTCTACAGATAGC, the binding signal (log2 normalized intensity) was -1.14.
In the case of GGGCCCCAGGGGACGTGGAATAGATCAGCT it was -1.18; in that of GGGGACTGCCTCTTCAGGAGGCACTGATAA, -1.23.
On to CAGACTGGTGCTATGTCCCTGACTGTGTGG, for which the binding signal (log2 normalized intensity) came out at 1.14.
Regarding CCCAGGTCCTTTGGTCTGGCATTCAGCGCC, the binding signal (log2 normalized intensity) was -0.913.
In the case of AGGTCACAGCATTAGAGCAACCAGAATGTT it was -1.29; in that of AGGAAAGGGCTTTGGGGACTGAAGACTTTG, -1.28.
For the sequence CCTGAAGCTGCCCTTTGCACATGCCCCTCC, the binding signal (log2 normalized intensity) was 5.07.
As for CCAGGAGAGCCGAAGCAGTCAAATGACCCT, the binding signal (log2 normalized intensity) came out at 4.77.
In the case of CACGTCTCAAGCTTCAGGAGTCCACTGTGT it was 1.89; in that of GCTCATGCAGCTGCTGCCCAAAGGTCACCT, 5.82.
For the sequence AGTTCATAGCAAAGTTTTTGTTCAATATGC, the binding signal (log2 normalized intensity) stood at 1.24.
In the case of TCACTGCTGGTGGGTGGGGGAAGTGTGGTC it was 1.35; in that of TCAGTCTGAGATAGTCATTCTTCTACAGTG, 0.384.
With CTAAGTCTTTCCACACAGCCTGTCAAAGGG, the binding signal (log2 normalized intensity) was found to be 0.314.
Turning to TGTAGGCCGTAACTGTCTCTGTTGCTCAAT, the binding signal (log2 normalized intensity) is -0.232.
In the case of GAGGGCGCTGTTGATGGGCAGCGCGGCGCG it was -1.39.
In the case of CCCATTCTGTGCTGGCCCTGGGGGTGGGGG it was -0.34; in that of GTGGGAGGGAGGCTTTTGCAGTCACTCTCT, -1.39.
In the case of TGAACCAATGCCACAGAAAAGGCAGCAGCT it was -1.35; in that of AAGGAATGTAATGTATGCATAGACTGCCCA, 1.18.
CCTTTCCCTTATCTTTGTTATCTGTTGGTT: the binding signal (log2 normalized intensity) stood at 2.03.
CTCTGAAGTTTAATCCTCTCACCCAAGATC: the binding signal (log2 normalized intensity) stood at 2.13.
In the case of GACTCTGAGCCTCCTCCCTCTCTCTCTTAA it was -0.662; in that of ATGAGTCTTGGGAATGAATCAGAATTTGGA, 0.665.
With CTGAAGCATGCTATTTCAGGAATGTGACCC, the binding signal (log2 normalized intensity) came out at 4.95.
Consider GCCTCGCCCTGCTTCGGCTCGCGCACGGTG, for which the binding signal (log2 normalized intensity) was -1.29.
In the case of CCCCTGCAATACAGCCTTGTTTACAACGCT it was -0.957.
For the sequence AGCGGGGCCTCTGTGTGGGGCTGATAAGGC, the binding signal (log2 normalized intensity) was -1.42.
Turning to GACTGCAGAGATTGGAATCTCTGCACAGCA, the binding signal (log2 normalized intensity) was -1.29.
In the case of AAATGCATTTCCTTATTCTTAACAAGCTGA it was -1.37; in that of CAGAAAGTGACGTGCAGAGGAGCAACTCAT, -1.39; in that of AAGGCTCTTTGTTCAGAGGGCATGTTGAGT, 1.8.
As to CTATTTCAGGAATGTGACCCCTTTCATGAA, the binding signal (log2 normalized intensity) was determined as 4.4.
In the case of TCTTACCCAACCAAAAACAAAACTGGTCAT it was 2.
In the case of CTTTGGAGTTTACTTTAGATGTGTTTGAGT it was 1.94; in that of TTTTATTTTCCCCCTTTGAAGTCTGCCCTC, 4.94; in that of GCAGGAGCCCAAGAAGCGTCAGTTGCCTCG, -1.4.
For TTTGACCTTAAGTCAGAAGAACTGATTCCA, the binding signal (log2 normalized intensity) turned out to be 1.63.
Turning to GCCTTGCAGGTTCTCAGAAACGCCTGGCGC, the binding signal (log2 normalized intensity) is -1.26.
Regarding CCAGGGGACGTGGAATAGATCAGCTTTCAA, the binding signal (log2 normalized intensity) is -1.3.
In the case of GCTCAAGTCTTTTAGAATGTGGATGGGCTG it was -0.117; in that of AAGAAACATTTTACAACCTATTCTCTCTGA, -1.31; in that of TTTCTGAGGAGCTAACAGTAAAACTGAGAT, -1.23.
GTCAGATGACAGAATTGGTCCTGGAACTCA: the binding signal (log2 normalized intensity) worked out at 0.192.
In the case of ACTGCCTGACCCCAAGTAATAGCCGTTTCT it was 1.4; in that of TGAGGATACCAGAAATTCCATGATTTTCTG, -1.31.
In the case of AAGCAGCATTCCACCAAATCTTACCTAAGG it was -1.24.
In the case of TTCAGGGAGCGAATAAATACATAAAGTCCA it was 1.92; in that of AGACACAAAAAGGCAAAGGTGTCAGGACCT, -1.31.
On to ACCAAACAGAGAGAAAGCAGTGACCATCCC, for which the binding signal (log2 normalized intensity) was -1.25.
Consider CCAGTGTGTTGTGCTGACCTCCTGTCTCAT, for which the binding signal (log2 normalized intensity) was determined as 2.69.
In the case of CATCTGGGCAAGGTGTCAACCTTCATTCTC it was 0.575; in that of TCTTCACCTGCCCTGAGTCCAGCCTTCCTG, 0.791.
In the case of GGTGGACTGATAGGTGCGTGGGGGAGGGGC it was -1.47; in that of TACAAAATTTACTTTAAATACACCTAACCC, -0.792; in that of GATCCCGAAAGCCGGTTCCCGCCCAAGGAG, -1.22.
In the case of GTGGCCTTGCCATTGGAGGTCACCCTGTGT it was 2.7.
Consider GGGAAAACCTGACTGCGCTCCCAGAAGCCT, for which the binding signal (log2 normalized intensity) was -1.28.
Consider GAATTCCACAGCAGAAGGCAACAGCTCTGG, for which the binding signal (log2 normalized intensity) was -1.38.
In the case of CCAACAAAAGAAAGCCCATTAAATCTTCCC it was -1.33.
In the case of GTCAAAAGGGGAAATATGTAGGTTTGGGGA it was -1.34.
Consider AAAGTTTGGACTAGCCACAGGGGAAACACA, for which the binding signal (log2 normalized intensity) was -1.39.
